According to the BET-seq Pho4 binding data (Le et al. 2018):
The list shows a part of the results. Values were computed here from the reads of four pooled replicates and scatter widely.

Molecular target: T1, Pho4 (S. cerevisiae) (UniProt P07270)
T1 sequence: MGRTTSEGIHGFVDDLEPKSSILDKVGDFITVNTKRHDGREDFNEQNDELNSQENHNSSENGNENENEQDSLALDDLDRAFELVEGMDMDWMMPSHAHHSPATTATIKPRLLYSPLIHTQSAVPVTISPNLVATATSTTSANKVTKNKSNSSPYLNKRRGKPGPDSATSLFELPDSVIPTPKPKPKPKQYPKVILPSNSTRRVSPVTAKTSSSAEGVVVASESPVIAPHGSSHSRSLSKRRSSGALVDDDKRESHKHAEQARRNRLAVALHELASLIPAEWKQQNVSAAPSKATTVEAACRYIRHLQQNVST
Test: relative binding free energy (BET-seq); higher = weaker binding
Conditions: reference: library average

Sequence	relative binding free energy [kcal/mol]
TATTCCACGTGTGGCG	0.09
TGTAGCACGTGGACTG	-0.18
TGAGACACGTGGTGGA	-0.08
TGCGGCACGTGTAAAG	0.02
CATGTCACGTGTAATG	0.21
TTTATCACGTGATCAT	0.33
GGCTTCACGTGGTGGC	0.22
AATATCACGTGTGTCT	0.2
CAGGGCACGTGTGCGG	-0.1
ACAATCACGTGTTAGG	0.21
CTTAGCACGTGGTCGT	-0.1
ACGGGCACGTGTAGAG	-0.09
TAGTGCACGTGGTTGG	-0.06
TAAGTCACGTGTGAGC	0.18
AAGTGCACGTGAGTTT	0.21
ACGCTCACGTGGTTGG	0.14
AGGCACACGTGGTTAT	0.03
TTTTACACGTGAGGCT	0.39
GGGAGCACGTGGATTG	0.12
TAGTTCACGTGGGCAG	0.18
TAAACCACGTGGTGGG	-0.13
GTAGTCACGTGGAGTT	0.13
GTTGGCACGTGCTCGT	-0.09
GGATTCACGTGGCGAT	0.28
AGAGTCACGTGGGTGC	-0.21
CTAGGCACGTGGCGGA	-0.21

Sequence	relative binding free energy [kcal/mol]
AGTTGCACGTGTAGAG	0.01
GTTCGCACGTGTTCTG	0
AATGTCACGTGAGTTA	0.26
GTGGACACGTGAGTGG	0.36
GATCTCACGTGGGGTT	0.24
GTGGACACGTGGTTGC	0.09
GTTGGCACGTGGGCGT	-0.25
AAGGGCACGTGTTATT	-0.16
TGTGCCACGTGGGTGT	-0.26
GCAGGCACGTGAGGAG	0.06
TATGGCACGTGGTTAA	-0.13
AAAGTCACGTGATATT	0.22
GGGATCACGTGTGTGG	0.27
TGAGCCACGTGTTATT	0.05
TTGTGCACGTGTGAGG	0.13
AATATCACGTGGTGTC	0.05
TTATTCACGTGGTCGG	0.05
AGCGCCACGTGGTTGG	-0.12
ATGTACACGTGAAGAG	0.24
AATGACACGTGTGATG	0.28
GTGTACACGTGTGGAT	0.05
TATTTCACGTGAACGG	0.45
AAGGGCACGTGGCGAG	-0.17
TCGGTCACGTGTTCAT	0.25
CTGGGCACGTGTTGGA	-0.17
GGTTGCACGTGATAGG	0.09

Sequence	relative binding free energy [kcal/mol]
GGATTCACGTGGGGAC	0.27
GTAGACACGTGATCGT	0.13
TGCTACACGTGTTTTA	0.11
GTGCGCACGTGAAGGT	0.18
CTGGACACGTGGTTTA	0.1
CGGGTCACGTGACGGT	0.23
TTATCCACGTGGGTGA	-0.2
AGTTACACGTGCTGGA	0.1
GAGTTCACGTGGTGCG	0.3
TAGAGCACGTGTTAGG	-0.15
AGGGTCACGTGGGATC	0.06
CTTTACACGTGAGTGT	0.23
TGTGTCACGTGTTTCT	0.07
TGAGTCACGTGTTAAG	0.12
AGTCGCACGTGAAGGG	0.25
TATTCCACGTGATAGG	0.15
TAGGTCACGTGATGTC	0.2
GGTCTCACGTGGGAGA	0.19
TATAACACGTGTTTGT	-0.06
AATTTCACGTGGGGAA	0.29
TTCGGCACGTGTGTCT	0.04
GCATGCACGTGTGGAT	0.12
TTGGGCACGTGTCGCT	-0.23
AATGCCACGTGGGGAT	-0.12
AGCTACACGTGGGCGG	-0.1
AAGTGCACGTGTTTCT	0.06

Sequence	relative binding free energy [kcal/mol]
ATGGTCACGTGTCCTG	0.22
AGTTCCACGTGAGATG	0.21
TCGTTCACGTGATGGT	0.39
AGTTTCACGTGGGGAA	0.26
GGGGACACGTGGGTAC	-0.1
AGGGGCACGTGTGATC	0.04
CCGGGCACGTGGGAAG	-0.08
GGGGGCACGTGGCGGC	-0.19
ATCTGCACGTGCGGTA	0.04
GGTTACACGTGGGATT	0.22
AGTGACACGTGATGGG	0.24
ATTCTCACGTGTTTGA	0.03
TGTTGCACGTGCGTTC	-0.09
CGAGTCACGTGTATTT	0.16
TGTTCCACGTGGGTAT	-0.08
TTCTTCACGTGATTTT	0.23
TGTTGCACGTGTTTTC	0.03
TGTGCCACGTGGATTT	-0.06
TTGGTCACGTGCTTTC	0.17
ACTGTCACGTGTGAGT	0.43
GTAAACACGTGGGCTT	-0.1
TCTTTCACGTGAATGG	0.43
CGCATCACGTGTTGGT	0.09
TGGGCCACGTGGGGGT	-0.19
GGGCACACGTGTAGGG	0.05
GTTGTCACGTGGCTTC	0.02

Sequence	relative binding free energy [kcal/mol]
TTGGGCACGTGCTAGG	-0.13
TGGATCACGTGGAGAT	0.01
GTGTTCACGTGATTTT	0.43
TTGGTCACGTGCAGAT	-0.01
ACTTTCACGTGTAAGG	0.21
ACTGTCACGTGACTGG	0.34
TATAACACGTGATGTT	0.1
CGAGTCACGTGTTGTG	-0.04
AGTAACACGTGAAGTG	0.11
GGATGCACGTGTGGAG	0.05
TTGCCCACGTGGGTAG	-0.15
GGAATCACGTGGGCGG	0.05
AGTTTCACGTGCTGGG	0.26
GGGGTCACGTGGAGCG	0.16
GAATACACGTGGGAGT	0.12
TTCATCACGTGTTTAT	0.13
GAGTACACGTGTTTTA	0.1
TGCTTCACGTGGATGA	0.33
TTGTGCACGTGAGTCA	0.07
ATCGCCACGTGAGGGG	0.19
TAAAGCACGTGTGGGG	-0.05
AGCTGCACGTGGAGGA	-0.02
ATAGGCACGTGGGCAG	-0.23
GGTTACACGTGGTGTT	0.1
TCATGCACGTGAGCGT	0.25
GTTGACACGTGGGATA	-0.11

Sequence	relative binding free energy [kcal/mol]
TGTGGCACGTGAACTT	0.14
CCTTGCACGTGTGTGG	0.02
TCGGGCACGTGGTTCT	-0.11
ATTGGCACGTGCTAAT	-0.03
TGGGCCACGTGGCCGT	-0.09
CAGGGCACGTGGGCGT	-0.34
CGTTTCACGTGTGTTC	0.23
AATGGCACGTGTAATA	0.01
GTAGGCACGTGAATTG	0.11
AGGGTCACGTGGAATA	0.18
GCGGCCACGTGTGGGC	0.1
CTGAACACGTGGTGGG	-0.06
AATTTCACGTGTTAGG	0.25
AAGGTCACGTGGAGGT	0.04
TCGGGCACGTGTAGGT	-0.08
ACGGGCACGTGCTGTT	-0.14
GCGGCCACGTGTGTGG	0.02
TGGGGCACGTGATTTG	0.06
TAATCCACGTGGTGGT	-0.07
TGATTCACGTGTCGGA	0.24
TTGGGCACGTGAATTA	0.08
TGTTGCACGTGTGATT	0.11
CGGTACACGTGATTGT	0.01
TTAATCACGTGGAATT	0.17
ATCTACACGTGGGGTA	0.01
GGTACCACGTGGAGGA	0

Sequence	relative binding free energy [kcal/mol]
GTGTGCACGTGTATGG	0.04
CAGGTCACGTGGTGTG	0.07
ATGTACACGTGGTGGA	-0.05
TATAACACGTGTAGTT	0.11
ATGGTCACGTGTCTGT	0.14
TGGGTCACGTGGCGGG	0.1
GTGCTCACGTGTGGTG	0.3
TTAATCACGTGCATGG	0.12
TGAGTCACGTGGTAGC	0.04
GAGTACACGTGAAGGG	0.21
TAAGTCACGTGCGAGT	0.08
TTTGTCACGTGGTCGC	-0.12
GTGTTCACGTGATGAG	0.37
GAAGTCACGTGTAGGT	0.31
GTTTACACGTGTTGGA	0.16
GTTCTCACGTGTTATG	0.26
AGAGACACGTGAGAGG	0.32
AGAAGCACGTGTAGTG	-0.03
ATGCCCACGTGGTTGG	-0.01
AGGGACACGTGTTTAG	0.07
GGATTCACGTGGAAGT	0.31
GGGCTCACGTGGAAAG	0.48
GGTTACACGTGGGAAG	0.16
CTTATCACGTGTGGAT	0.1
GGTCACACGTGTTGAT	0.26
ATGGCCACGTGATATT	0.16

Sequence	relative binding free energy [kcal/mol]
GTTTTCACGTGGTCTA	0.23
TTTCTCACGTGTAAGT	0.22
CGGGGCACGTGGGGTG	-0.35
TATGGCACGTGTGTTA	0
TGGGGCACGTGCAGAA	-0.18
TGAGACACGTGACGGT	0.18
ATGCTCACGTGTGTGT	0.04
GGGAGCACGTGAGCGT	0.16
AAGTCCACGTGGGGGG	-0.21
TATATCACGTGTATAG	0.08
TGGTACACGTGCTGTT	-0.05
CGAATCACGTGGGTTT	-0.01
AGTGGCACGTGAGCGG	0.01
AGGAGCACGTGAGGGG	0.14
TGGTGCACGTGGTTTA	-0.08
TAAGGCACGTGAGGTT	0.18
GGATCCACGTGAGTTG	0.37
TCTGACACGTGCGGGT	0.04
CGGGACACGTGTGATG	0.08
GATGTCACGTGGGTTA	0.17
CTTTTCACGTGATTGG	0.4
AGTGCCACGTGGGAAT	-0.13
CGATGCACGTGTAATG	0.14
TGTGTCACGTGACTAG	0.23
AGTAGCACGTGTGTCG	-0.03
TCTTTCACGTGGCTGT	0.26

Sequence	relative binding free energy [kcal/mol]
TATGGCACGTGGACAG	-0.07
AGGGTCACGTGTGAAT	0.25
AGTGTCACGTGTAGCG	-0.06
GGAAGCACGTGGTGGA	-0.13
GGTTACACGTGCTAGG	0.06
ATATGCACGTGGCGGT	-0.1
TTTGCCACGTGAGTGT	0.17
GTGAACACGTGTATGA	-0.04
TGACTCACGTGTTGTA	0
ATTGTCACGTGTTTTC	0.08
CCTGGCACGTGGTTGG	-0.32
AGGAACACGTGAGTTT	0.3
ATCTACACGTGTGTAT	0.11
AGAGGCACGTGCGCGT	-0.36
AAAGTCACGTGTTTAT	0.17
GTTTTCACGTGGGACG	0.28
ACGGTCACGTGGTTTT	0.09
ATTATCACGTGCAGTT	0.08
TGCTTCACGTGAGAGT	0.27
TTACTCACGTGTCAGT	0.34
CTTCGCACGTGGGTGG	-0.17
TGTATCACGTGTGAAG	0.17
